{"source": "paper PMC4336329", "about": "(PLoS ONE, 2015)", "note": "The whole screen tested about 310,000 compounds, of which about 2,200 (0.71%) showed an effect of 50% or more. The effect is printed as a negative number. Some of the results follow.", "data": [{"target": "human ether-à-go-go-related gene (hERG) potassium channel (human, UniProt Q12809)", "sequence (Q12809 whole entry, looked up)": "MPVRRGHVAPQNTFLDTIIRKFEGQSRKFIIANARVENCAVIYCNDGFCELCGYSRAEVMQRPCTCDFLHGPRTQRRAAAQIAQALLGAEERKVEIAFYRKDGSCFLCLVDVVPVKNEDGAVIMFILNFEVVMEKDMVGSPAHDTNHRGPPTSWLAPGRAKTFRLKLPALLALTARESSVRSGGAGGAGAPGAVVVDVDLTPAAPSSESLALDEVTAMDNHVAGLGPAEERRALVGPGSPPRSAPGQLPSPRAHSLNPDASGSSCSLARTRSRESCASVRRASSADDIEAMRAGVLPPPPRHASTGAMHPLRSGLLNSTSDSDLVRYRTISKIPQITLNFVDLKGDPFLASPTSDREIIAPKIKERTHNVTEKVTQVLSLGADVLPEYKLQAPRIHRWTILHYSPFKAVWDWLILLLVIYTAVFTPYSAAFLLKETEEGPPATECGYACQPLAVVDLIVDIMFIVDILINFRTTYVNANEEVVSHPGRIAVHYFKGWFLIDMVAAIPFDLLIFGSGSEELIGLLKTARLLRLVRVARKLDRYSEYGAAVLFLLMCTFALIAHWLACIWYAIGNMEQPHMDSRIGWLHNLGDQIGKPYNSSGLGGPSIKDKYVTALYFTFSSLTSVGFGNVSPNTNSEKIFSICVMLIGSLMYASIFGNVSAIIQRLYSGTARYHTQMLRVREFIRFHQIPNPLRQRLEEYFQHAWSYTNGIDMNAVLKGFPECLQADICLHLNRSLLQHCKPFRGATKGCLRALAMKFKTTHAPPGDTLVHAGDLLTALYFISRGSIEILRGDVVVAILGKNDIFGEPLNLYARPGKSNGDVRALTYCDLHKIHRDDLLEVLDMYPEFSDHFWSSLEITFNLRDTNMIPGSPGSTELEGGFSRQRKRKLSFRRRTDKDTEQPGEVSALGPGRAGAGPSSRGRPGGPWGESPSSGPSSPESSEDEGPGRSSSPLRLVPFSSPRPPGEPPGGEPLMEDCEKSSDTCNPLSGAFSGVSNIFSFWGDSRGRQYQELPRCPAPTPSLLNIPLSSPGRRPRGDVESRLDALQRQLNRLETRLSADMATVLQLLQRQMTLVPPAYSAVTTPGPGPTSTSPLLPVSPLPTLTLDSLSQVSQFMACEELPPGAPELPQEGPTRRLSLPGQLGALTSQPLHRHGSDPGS", "assay": "primary screen, population patch clamp on CHO cells stably expressing hERG", "units": {"hERG current change (%, negative = inhibition) at 1uM": "%"}, "values": [{"compound": "CC(=O)N/C(=C\\c1ccccc1)C(=O)OCc1ccc(F)cc1", "hERG current change (%, negative = inhibition) at 1uM": 27.3}, {"compound": "Cc1cccc(N(CC(=O)NCCSCc2ccco2)S(=O)(=O)c2ccccc2)c1", "hERG current change (%, negative = inhibition) at 1uM": 11.4}, {"compound": "COC(=O)c1c(C)[nH]c(C)c1-c1cccc([N+](=O)[O-])c1", "hERG current change (%, negative = inhibition) at 1uM": 1.07}, {"compound": "Cc1ccc2c(CN(C)Cc3ccc(Cl)cc3Cl)cc(=O)oc2c1", "hERG current change (%, negative = inhibition) at 1uM": 7.43}, {"compound": "O=C(Nc1nnc(-c2cccs2)o1)c1ccco1", "hERG current change (%, negative = inhibition) at 1uM": -0.481}, {"compound": "COc1cc([N+](=O)[O-])cc2sc(NC(C)=O)nc12", "hERG current change (%, negative = inhibition) at 1uM": 4.35}, {"compound": "C/C(CC(=O)NCc1ccco1)=N\\NC(=O)c1ccc([N+](=O)[O-])cc1Cl", "hERG current change (%, negative = inhibition) at 1uM": 9.29}, {"compound": "CC(NC(=O)c1cc(=O)[nH]c2ccc(Br)cc12)c1ccccc1", "note": "(stereo not drawn)", "hERG current change (%, negative = inhibition) at 1uM": 14.7}, {"compound": "Cc1cc(C)n(C(=O)CCCCCCCCC(=O)n2nc(C)cc2C)n1", "hERG current change (%, negative = inhibition) at 1uM": 4.55}, {"compound": "COc1ccc(CNC(=O)c2cc(-c3cc(C)ccc3O)n[nH]2)cc1", "hERG current change (%, negative = inhibition) at 1uM": 8.57}, {"compound": "COc1ccc(CCNC(=O)C2CC3Cn4c(nc5ccccc54)C3N2c2ccccc2)cc1", "note": "(stereo not drawn)", "hERG current change (%, negative = inhibition) at 1uM": 11.5}, {"compound": "Cl.N=c1sccn1CC(=O)Nc1ccc([N+](=O)[O-])cc1Cl", "hERG current change (%, negative = inhibition) at 1uM": 1.32}, {"compound": "Cc1ccc(S(=O)(=O)N2CCOCC2)cc1NC(=O)c1cc(-c2ccccn2)nc2ccccc12", "hERG current change (%, negative = inhibition) at 1uM": 8.07}, {"compound": "Cc1cccc(-c2cc3nc4c(c(N5CCOCC5)n3n2)CCCC4)c1", "hERG current change (%, negative = inhibition) at 1uM": 7.15}, {"compound": "CCC(CC)C(=O)Nc1cc(NC(=O)C(CC)CC)cc(C(=O)O)c1", "hERG current change (%, negative = inhibition) at 1uM": 16.9}, {"compound": "O=C(Nc1cccc(Cl)c1)Nn1cnnc1", "hERG current change (%, negative = inhibition) at 1uM": 10.5}, {"compound": "CCOC(=O)C(C)Oc1c(C(=O)OC)sc2ncccc12", "note": "(stereo not drawn)", "hERG current change (%, negative = inhibition) at 1uM": 9.1}, {"compound": "O=C1C=C(Nc2ccc(Cl)cc2)CC(c2ccccc2)C1", "note": "(stereo not drawn)", "hERG current change (%, negative = inhibition) at 1uM": -2.37}, {"compound": "Cc1cc(C)c(C(=O)CSc2n[nH]c(=O)n2C2CC2)cc1C", "hERG current change (%, negative = inhibition) at 1uM": 5.14}, {"compound": "CC(=O)c1cccc(S(=O)(=O)NC2CCCCCC2)c1", "hERG current change (%, negative = inhibition) at 1uM": 2.99}, {"compound": "O=C(COC(=O)CCc1nc2ccccc2c(=O)[nH]1)NC1CCS(=O)(=O)C1", "note": "(stereo not drawn)", "hERG current change (%, negative = inhibition) at 1uM": 5.63}, {"compound": "CCc1nnc(NC(=O)c2cc(-c3ccco3)nc3ccccc23)s1", "hERG current change (%, negative = inhibition) at 1uM": 10.4}, {"compound": "CC(=O)c1nn(-c2ccc(Br)cc2)cc1C(=O)c1ccco1", "hERG current change (%, negative = inhibition) at 1uM": 2.58}, {"compound": "Cc1ccc(OCCOC(=O)c2cc(S(=O)(=O)N3CCCCC3)ccc2N2CCOCC2)cc1", "hERG current change (%, negative = inhibition) at 1uM": 5.84}, {"compound": "CCSc1nnc([C@@H]2CCCN2C(=O)OC(C)(C)C)o1", "hERG current change (%, negative = inhibition) at 1uM": 11.9}, {"compound": "COc1ccc(/C=C2\\SC(=O)N(CC(=O)NNC(=O)c3ccccc3O)C2=O)cc1", "hERG current change (%, negative = inhibition) at 1uM": 13.4}, {"compound": "CC(=O)Nc1ccc(S(=O)(=O)N2CCCC2)cc1", "hERG current change (%, negative = inhibition) at 1uM": 10.8}, {"compound": "CC(C)(C)C1CCc2c(sc(NC(=O)c3ccncc3)c2C(N)=O)C1", "note": "(stereo not drawn)", "hERG current change (%, negative = inhibition) at 1uM": 11.9}, {"compound": "Cc1ccc(-c2nc(C#N)c(N3CCC(C)CC3)o2)cc1", "hERG current change (%, negative = inhibition) at 1uM": 13.1}, {"compound": "O=C(COc1ccccc1)Nc1nnc(-c2ccc3c(c2)CCCC3)o1", "hERG current change (%, negative = inhibition) at 1uM": 13.8}, {"compound": "O=C(NCc1ccncc1)C(=O)N/N=C/c1ccccn1", "hERG current change (%, negative = inhibition) at 1uM": 11.5}, {"compound": "CC1(C)N(OCc2ccccc2)C(=O)C(=O)N(OCc2ccccc2)C1(C)C", "hERG current change (%, negative = inhibition) at 1uM": -1.89}, {"compound": "Cc1cnc(SCc2cnc(C)nc2N)nc1", "hERG current change (%, negative = inhibition) at 1uM": 7.53}, {"compound": "CC(C)C(NC(=O)OCc1ccccc1)C(=O)OCC(=O)NCc1ccco1", "note": "(stereo not drawn)", "hERG current change (%, negative = inhibition) at 1uM": 19.6}, {"compound": "CCOC(=O)CNC(=O)/C=C/c1ccc2c(c1)OCO2", "hERG current change (%, negative = inhibition) at 1uM": 14.3}, {"compound": "Cc1nnc(-c2ccc(Oc3ccc(Br)cc3)c([N+](=O)[O-])c2)o1", "hERG current change (%, negative = inhibition) at 1uM": 10.1}, {"compound": "Oc1ccccc1-c1nnc(-c2ccc(C(F)(F)F)cc2)o1", "hERG current change (%, negative = inhibition) at 1uM": 11.6}, {"compound": "O=C(N/N=C/c1cc2c(cc1Cl)OCO2)c1cccc(Br)c1", "hERG current change (%, negative = inhibition) at 1uM": 10.5}, {"compound": "O=C(CSc1nc2ccccc2c(=O)n1CCCO)NCc1ccccc1", "hERG current change (%, negative = inhibition) at 1uM": -4.26}, {"compound": "Cc1ccc(OCC(O)CNC(C)c2ccccc2)cc1C.Cl", "note": "(stereo not drawn)", "hERG current change (%, negative = inhibition) at 1uM": 10.4}, {"compound": "CC1(C)Cc2c(sc3nnn(Cc4ccc(Cl)cc4)c(=O)c23)CO1", "hERG current change (%, negative = inhibition) at 1uM": 18.7}, {"compound": "Cc1cc(C)cc(OCCCn2ccnc2)c1", "hERG current change (%, negative = inhibition) at 1uM": 21}, {"compound": "CCOc1ccc2[nH]c3c(NCC(C)C)ncnc3c2c1", "hERG current change (%, negative = inhibition) at 1uM": 7.21}, {"compound": "CCOC(=O)c1[nH]c2ccccc2c1NC(=S)Nc1ccccc1C", "hERG current change (%, negative = inhibition) at 1uM": 2.56}, {"compound": "O=C(c1ccc(F)c(S(=O)(=O)N2CCOCC2)c1)N(c1ccccc1)c1ccccn1", "hERG current change (%, negative = inhibition) at 1uM": 4.63}, {"compound": "Cc1ccc(-c2nn(C(C)(C)C)c3ncnc(NS(=O)(=O)c4ccc([N+](=O)[O-])cc4)c23)cc1", "hERG current change (%, negative = inhibition) at 1uM": -2.06}, {"compound": "COc1ccccc1-n1nnnc1SC(C)C(=O)NC1CCCC1", "note": "(stereo not drawn)", "hERG current change (%, negative = inhibition) at 1uM": 12.9}, {"compound": "CCOc1ccc2nc(SCC(=O)Nc3ccc(S(=O)(=O)N4CCCC4)cc3)c(C)cc2c1", "hERG current change (%, negative = inhibition) at 1uM": 4.81}, {"compound": "CC1(C)Cc2ccccc2-c2nc(-c3ccccc3)oc(=O)c21", "hERG current change (%, negative = inhibition) at 1uM": -1.19}, {"compound": "CC(C)c1cccc(C(C)C)c1OCCn1ccnc1", "hERG current change (%, negative = inhibition) at 1uM": -0.22}, {"compound": "CCOc1nnc(C)c2c(C)n(-c3ccc(Cl)cc3)nc12", "hERG current change (%, negative = inhibition) at 1uM": -2.61}, {"compound": "CN(C)CCCn1c(=O)n(Cc2ccco2)c(=O)c2c3c(sc21)CCCCC3", "hERG current change (%, negative = inhibition) at 1uM": -40.7}, {"compound": "Cc1cccc(-c2nc3ccccc3c(=O)n2NC(=O)c2ccc([N+](=O)[O-])c(C)c2)c1", "hERG current change (%, negative = inhibition) at 1uM": -1.13}, {"compound": "CCC(NC(=O)COc1cc2c(c3oc(=O)c(C)c(C)c13)CCC(C)(C)O2)C(=O)O", "note": "(stereo not drawn)", "hERG current change (%, negative = inhibition) at 1uM": 0.462}, {"compound": "Cc1ccc2nc3c(cc(C(=O)NCCc4ccccc4)c(=N)n3CCN3CCOCC3)c(=O)n2c1", "hERG current change (%, negative = inhibition) at 1uM": -82.9}, {"compound": "CC(C)[C@H](NC(=O)c1ccco1)C(=O)OCC(=O)c1ccc2c(c1)NC(=O)CO2", "hERG current change (%, negative = inhibition) at 1uM": 13.5}, {"compound": "NS(=O)(=O)c1ccc(NC(=O)C2(c3ccccc3)CCCC2)cc1", "hERG current change (%, negative = inhibition) at 1uM": 13.7}]}]}
